Publication PMC10641171
No constants are given. Whether binding was seen depends on the method and setting. For some of these results: In cells and extracts the contact can be indirect. Some results given as binding are weak or reduced against the parent protein; the word gives no strength. For some of these results: Sequences can lack the tags named with a protein. Values belong to the substance of their own block, whether it stands above or below them.

Amino acid sequences for entries named in this document (tags omitted).
UniProt O15527: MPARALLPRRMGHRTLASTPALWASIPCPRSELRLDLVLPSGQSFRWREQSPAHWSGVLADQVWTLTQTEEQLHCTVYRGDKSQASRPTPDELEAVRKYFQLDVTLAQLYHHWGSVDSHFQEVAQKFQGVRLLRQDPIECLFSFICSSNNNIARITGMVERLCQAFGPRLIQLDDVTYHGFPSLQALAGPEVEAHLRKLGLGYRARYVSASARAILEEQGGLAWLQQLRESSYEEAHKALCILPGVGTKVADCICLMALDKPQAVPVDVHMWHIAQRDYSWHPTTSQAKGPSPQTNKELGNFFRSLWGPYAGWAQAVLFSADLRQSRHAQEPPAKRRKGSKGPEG
UniProt Q04206: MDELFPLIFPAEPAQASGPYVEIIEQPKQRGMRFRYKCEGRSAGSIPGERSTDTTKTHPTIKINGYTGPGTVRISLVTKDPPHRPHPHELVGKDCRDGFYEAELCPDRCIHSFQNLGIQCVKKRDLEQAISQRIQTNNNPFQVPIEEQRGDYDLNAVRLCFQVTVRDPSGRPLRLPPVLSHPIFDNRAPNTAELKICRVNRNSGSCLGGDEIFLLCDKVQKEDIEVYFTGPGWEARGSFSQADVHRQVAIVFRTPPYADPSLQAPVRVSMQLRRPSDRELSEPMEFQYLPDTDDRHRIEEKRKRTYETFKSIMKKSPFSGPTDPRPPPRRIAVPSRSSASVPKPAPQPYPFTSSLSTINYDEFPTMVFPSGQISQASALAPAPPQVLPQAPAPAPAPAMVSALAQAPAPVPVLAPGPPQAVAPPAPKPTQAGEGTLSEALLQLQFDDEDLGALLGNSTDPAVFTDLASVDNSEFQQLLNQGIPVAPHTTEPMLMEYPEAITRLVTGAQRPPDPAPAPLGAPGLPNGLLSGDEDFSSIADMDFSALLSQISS

Assays:
Recombinant His-OGG1 = Recombinant His-OGG1 (UniProt O15527); experiment: pull-down; reverse pull-down: His-OGG1 used to pull down GST-MSK1 and its mutants (Fig. S5B); both purified
GST-MSK1 (full length) = GST-MSK1 (full length) (UniProt O75582); experiment: pull-down; GST pull-down: His-OGG1 (increasing amounts) incubated with GST, GST-MSK1, GST-MSK1 truncations or GST-PKAc on GST-tag resin; pulled-down OGG1 detected by Western blot; both purified
GST-MSK1 1-330 = GST-MSK1 1-330 (UniProt O75582); experiment: as above
GST-MSK1 1-426 = GST-MSK1 1-426 (UniProt O75582); experiment: as above
GST-MSK1 1-725 = GST-MSK1 1-725 (UniProt O75582); experiment: as above
GST-MSK1 330-803 = biological target: T1, GST-MSK1 330-803 (UniProt O75582); experiment: as above
T1 sequence: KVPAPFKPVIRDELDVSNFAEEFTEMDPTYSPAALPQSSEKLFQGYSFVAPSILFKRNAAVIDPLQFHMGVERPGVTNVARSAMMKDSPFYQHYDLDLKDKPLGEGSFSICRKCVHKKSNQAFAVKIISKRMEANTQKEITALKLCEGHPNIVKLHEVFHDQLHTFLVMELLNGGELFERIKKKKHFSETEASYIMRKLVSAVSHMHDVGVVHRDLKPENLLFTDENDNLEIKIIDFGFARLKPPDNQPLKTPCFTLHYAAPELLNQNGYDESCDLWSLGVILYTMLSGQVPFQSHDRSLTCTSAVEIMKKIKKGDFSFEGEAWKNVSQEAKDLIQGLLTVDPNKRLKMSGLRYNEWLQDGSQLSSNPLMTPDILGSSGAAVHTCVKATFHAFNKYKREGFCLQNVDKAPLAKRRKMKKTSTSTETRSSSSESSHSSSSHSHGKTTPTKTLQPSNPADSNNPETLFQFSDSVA

Flag-MSK1 = Flag-MSK1 (UniProt O75582); experiment: co-IP; HEK293 cells expressing Flag-MSK1 or Flag-PKAc, TNFα 1 h; whole-cell extracts, Flag beads; Western blot of endogenous OGG1 and RelA/p65
[1] = biological target: YFP-OGG1 (8-oxoguanine DNA glycosylase 1) (UniProt O15527); experiment: co-IP; HEK293 cells expressing YFP-OGG1 (wt, K249Q or F319A), mock or TNFα 20 ng/ml 1 h, with or without 1 h pretreatment with NAC, TH5487 or TH2840; whole-cell extracts (50 mM Tris-HCl pH 7.5, 150 mM NaCl, 1% Nonidet P-40), GFP beads 3 h at 4 °C; Western blot of endogenous proteins

binding (Recombinant His-OGG1): binds
Substance: GST-MSK1 1-725 (from UniProt O75582 1-725) (domain or fragment)

binding (GST-MSK1 (full length)): binds | binding (GST-MSK1 1-330): binds | binding (GST-MSK1 1-426): binds | binding (GST-MSK1 1-725): binds | binding (GST-MSK1 330-803): no binding
Substance: Recombinant His-OGG1 (from UniProt O15527 1-345) (enzyme)

binding (Recombinant His-OGG1): binds
Substance: GST-MSK1 1-330 (from UniProt O75582 1-330) (domain or fragment)

binding (Flag-MSK1): binds
Substance: 8-oxoguanine DNA glycosylase 1 (OGG1), endogenous (from UniProt O15527 1-345) (enzyme)

binding [1]: binds
Substance: RelA/p65, endogenous (from UniProt Q04206 1-551)

binding (Recombinant His-OGG1): binds
Substance: GST-MSK1 1-426 (from UniProt O75582 1-426) (domain or fragment)
